Screen size: about 340,000 compounds; about 6,900 (2%) were called active. No stated cut-off is given here; in the data, active means inhibition above about 30%; inactive means below that, where a call was filed. This is a selection; strong and weak results do not stand in their true shares. The source gives no active or inactive call for entries shown without one.
Each compound was assayed against D(2) dopamine receptor (Homo sapiens) (UniProt P14416) (assay: HTS Assay for Allosteric Antagonists of the Human D2 Dopamine Receptor: Primary Screen for Antagonists). Conditions: HEK293 TREx D2 cells, calcium flux, dopamine EC80; at 10 µM; stronger effect = higher value.
Chain of UniProt P14416 (P14416 whole entry, looked up): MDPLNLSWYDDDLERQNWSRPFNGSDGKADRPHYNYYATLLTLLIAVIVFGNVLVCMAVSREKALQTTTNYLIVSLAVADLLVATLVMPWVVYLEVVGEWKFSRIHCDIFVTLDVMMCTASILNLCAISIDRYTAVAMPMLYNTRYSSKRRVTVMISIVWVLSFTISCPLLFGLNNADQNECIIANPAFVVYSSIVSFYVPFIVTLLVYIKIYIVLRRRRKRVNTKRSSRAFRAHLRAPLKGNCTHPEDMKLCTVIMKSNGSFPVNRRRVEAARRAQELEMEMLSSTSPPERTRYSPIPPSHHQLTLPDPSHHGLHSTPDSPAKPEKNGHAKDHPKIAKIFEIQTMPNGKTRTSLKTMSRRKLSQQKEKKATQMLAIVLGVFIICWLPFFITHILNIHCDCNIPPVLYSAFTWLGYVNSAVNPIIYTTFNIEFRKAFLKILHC
Summary of the method: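 Calcium flux kinetic readout in an inducible HEK293 TREx D2 line plated overnight at 30 C. After 180 s compound exposure, an EC80 dopamine challenge follows with another 180 s kinetic read to detect antagonism.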
`CN(Cc1ccccc1)S(=O)(=O)c1nnc(NC(=O)c2ccccc2)s1` gave an inhibition of -21.7%.
`Cc1ccc(CN2CCc3nc(N4CCN(C)CC4)ncc3C2)s1` gave an inhibition of 2.92%.
With `Cc1ccc(-n2ncc3c(N4CCC(Cc5ccccc5)CC4)ncnc32)cc1` the inhibition was 9.07%.
In the case of `O=C(c1ccc2c(c1)N(Cc1ccccc1F)C(=O)c1ccccc1S2=O)N1CCOCC1` (stereo not drawn), the inhibition is reported as -2.55%.
`CC(C)(C)CC(=O)NC1CC(=O)N(c2ccc3c(c2)OCCO3)C1` (stereo not drawn) showed an inhibition of -4.36%.
With `COc1ccccc1OCC(=O)Nc1nc(-c2ccc(Br)cc2)ns1` the inhibition was 5.87%.
Compound `CC(C)N(Cc1ccccc1)C(=O)CCS(=O)(=O)c1ccc2c(c1)oc(=O)n2C` has an inhibition of -6.02%.
For `Cc1ccc(NC(=O)C2CCN(S(=O)(=O)c3c(C)noc3/C=C/c3ccco3)CC2)cc1C`, the inhibition was 7.54%.
Compound `Cc1ccc(S(=O)(=O)c2cn(C)c3cc(N4CCCC(C)C4)c(F)cc3c2=O)c(C)c1` (stereo not drawn) has an inhibition of 8.46%.
Compound `Cc1cc2c(cc1S(=O)(=O)N(CCN(C)C)Cc1ccco1)OCC(=O)N2` has an inhibition of -12%.
Work on `O=C(NCCOCCn1c(=O)oc2ccccc21)Nc1ccc(F)cc1` yielded an inhibition of -4.4%.
With `O=C1N/C(=N\S(=O)(=O)Cc2ccccc2)S/C1=C/c1cc([N+](=O)[O-])ccc1O` the inhibition was active: 30.6%.
For `COc1ccc(OCC(=O)Nc2cccc(-c3nc4ccccc4s3)c2C)cc1`, the inhibition was 15%.
In the case of `CCC1CN(C(=O)N2CCC(C(=O)NCc3ccccc3C)CC2)c2ccccc2O1` (stereo not drawn), the inhibition is reported as 9.44%.
`Cc1ccc(-c2noc(CNC(=O)c3ccccc3)n2)cc1` gave an inhibition of 5.48%.
`Cc1ccc(-c2cc3c(n2-c2ccc(C)cc2)CC(C)(C)CC3=O)cc1` was tested, and the inhibition was -24.1%.
`CC(C)NC(=O)C1CCN(c2nc3ccccc3nc2C(F)(F)F)CC1` was tested, and the inhibition was -1.16%.
Compound `Cc1ccc(Cn2c(C)c(CNCCCc3ccccc3)c(C(=O)O)c2C)cc1` has an inhibition of -7.99%.
`CCCCNC(=O)CSc1nnc(C)c2c(C)n(-c3ccccc3)nc12` gave an inhibition of -13.2%.
`Cc1ccc(C(=O)n2nc(C)c(S(=O)(=O)N3CCCCCC3)c2C)cc1` gave an inhibition of -6.34%.
`CCOC(=O)c1ccc(CN(Cc2ccccc2C)S(=O)(=O)c2ccc(C(C)(C)C)cc2)cc1` showed an inhibition of -5.98%.
With `Cc1cccc(-c2noc(-c3ccc(N4CCN(C)CC4)c([N+](=O)[O-])c3)n2)c1` the inhibition was 10.9%.
`COc1ccc(C)cc1NC(=O)c1ccc2c(c1)CCN2S(=O)(=O)c1ccc(Cl)cc1` was tested, and the inhibition was 0.574%.
`COc1ccc(CNc2nc3c(c(=O)n(C)c(=O)n3C)n2Cc2ccccc2Cl)cc1` was tested, and the inhibition was 9.29%.
`Cc1ccc(C)c(CN2CCC(CNC(=O)c3cc4ccc5cccnc5c4[nH]3)CC2)c1` showed an inhibition of 22.7%.
`Cc1ccc(C2=CC(c3c(F)cccc3Cl)n3ncnc3N2)cc1C` (stereo not drawn) gave an inhibition of -12.4%.
In the case of `CN(C)C1(CNC(=O)c2cccc(S(=O)(=O)NCc3ccccc3)c2)CCCCC1`, the inhibition is reported as active: 44.5%.
In the case of `CC(=O)Nc1cc(-c2nc3ccccc3s2)ccc1C`, the inhibition is reported as 16.7%.
For `CCn1c(-c2ccc(S(=O)(=O)N3CCOCC3)cc2)csc1=Nc1ccc(C)c(Cl)c1`, the inhibition was -22.2%.
Work on `O=C(CSc1nnc2[nH]c(=O)cc(-c3ccccc3)n12)Nc1ccc(F)cc1F` yielded an inhibition of 5.44%.
For `CCCn1c(-c2cccc(Br)c2)nc2ccccc21`, the inhibition was 0.43%.
In the case of `Cn1c(CSCc2ccccc2Cl)nnc1SCC(=O)Nc1nccs1`, the inhibition is reported as active: 59.7%.
`Cn1ncc(C(=O)N2CCN(c3ccc(F)cc3)CC2)c1C1CCN(C(=O)OC(C)(C)C)CC1` gave an inhibition of 3.94%.
In the case of `CCCN1C(=O)C(Cc2nc3ccccc3c(=O)n2-c2cccc(C)c2)c2ccccc21` (stereo not drawn), the inhibition is reported as 16.8%.
In the case of `c1ccc(-c2ccccc2OCCCCN2CCCCCC2)cc1`, the inhibition is reported as active: 148%.
Work on `Cc1cc(NC(=O)COc2ccccc2)cc(-c2nc3ccccc3o2)c1O` yielded an inhibition of 11.8%.
`CC(C)(C)OC(=O)N1CCC(c2nnc(SCc3ccccc3)o2)CC1` gave an inhibition of 15.9%.
Work on `COc1ccc(-c2noc(-c3ccc(N4CCCCC4C)c([N+](=O)[O-])c3)n2)cc1OC` (stereo not drawn) yielded an inhibition of -4.28%.
In the case of `COc1ccccc1CNC(=O)c1ccc(N2Cc3cccc(OC)c3Oc3ncccc32)s1`, the inhibition is reported as 4.94%.
Work on `O=C1OC(C(=O)Nc2ccc(Cl)c(C(F)(F)F)c2)Cc2ccccc21` (stereo not drawn) yielded an inhibition of -19.7%.
`CCOc1ccccc1CNC(=O)c1ccc2c(c1)sc1nc(-c3cccc(OC)c3)cn12` was tested, and the inhibition was 8.16%.
Work on `CC(C)n1c(SCC(=O)Nc2ccc(F)cc2)nc2c(oc3ccccc32)c1=O` yielded an inhibition of 6.2%.
`CC(C)C12CN3CC(C(C)C)(CN(C1)C3c1ccc(OCc3ccccc3)cc1)C2=O` (stereo not drawn) was tested, and the inhibition was -9.5%.
In the case of `CC(=O)c1cccc(NC(=O)c2ccc(-n3c(C)nnc3C)cc2)c1`, the inhibition is reported as 21.3%.
In the case of `COC(=O)c1cc(S(=O)(=O)NCC2CCN(Cc3ccc(C)cc3)CC2)c[nH]1`, the inhibition is reported as 11%.
`CCOc1ccc(-n2c(SCC(=O)Nc3ccc(F)cc3)nc3c([nH]c4ccccc43)c2=O)cc1` was tested, and the inhibition was -1.45%.
In the case of `Cc1cc(C)c2c(=O)cc(C(=O)Nc3sc4c(c3C(=O)NCc3cccnc3)CCCC4)oc2c1`, the inhibition is reported as -4.24%.
Compound `CCOC(=O)c1c(NC(=O)c2cc(C)on2)sc(C)c1C` has an inhibition of 12.5%.
Work on `CCOc1ccc(NC(=O)CCS(=O)(=O)c2cccc3nonc23)cc1` yielded an inhibition of -2.65%.
Work on `Cc1ccc(-n2ncc3c(N4CCN(C)CC4)ncnc32)cc1Cl` yielded an inhibition of -16%.
`CNC(=O)c1ccc(Nc2nnc(-c3ccc(C)c(S(=O)(=O)N4CCCCC4)c3)c3ccccc23)cc1` gave an inhibition of 10.8%.
`CCc1cccc(NC(=O)CSc2ncccc2C(=O)Oc2ccccc2Cl)c1` gave an inhibition of -19.3%.
`CNC(=O)c1c[nH]c2ccc(S(=O)(=O)Nc3cccc(Cl)c3C)cc2c1=O` was tested, and the inhibition was 1.26%.
`Cc1cc(C)cc(OCc2ccc(C(=O)Nc3ccccc3F)o2)c1` showed an inhibition of 8.08%.
In the case of `COc1ccc(CNC(=O)CCC(=O)N2CC3CCCN3c3ccccc32)c(OC)c1` (stereo not drawn), the inhibition is reported as 9.25%.
Compound `Cc1ccc2c(c1)N(C(=O)N1CCC(C(=O)NC3CCCCCC3)CC1)CC(C)O2` (stereo not drawn) has an inhibition of -3.14%.
`COc1cc(NC(=O)Cc2c(C(=O)O)c(C)cn2C)cc(OC)c1` was tested, and the inhibition was 3.54%.
`CCOc1ccc(C2C(=O)N(C3CCCCC3)CC(=O)N2C2CCCC2)cc1OC` (stereo not drawn) was tested, and the inhibition was 14.8%.
With `O=C(CSc1nnc(NC(=O)c2c(F)cccc2F)s1)NCC1CCCO1` (stereo not drawn) the inhibition was active: 73.8%.
`Cc1ccc2nc(-c3ccc(NC(=O)COc4ccccc4)cc3)sc2c1` showed an inhibition of -1.46%.
Work on `CCN(c1cccc(C)c1)S(=O)(=O)c1nnc(NC(=O)c2ccccc2Cl)s1` yielded an inhibition of 19.3%.
Work on `COc1ccccc1N1CCN(C(=O)c2cc(-c3ccc(F)cc3)on2)CC1` yielded an inhibition of 4.6%.
For `CC(=O)c1ccc(N2C(=O)N(CC(=O)c3ccc(C)cc3)c3ccccc3S2(=O)=O)cc1`, the inhibition was 14%.

Reference: PubChem BioAssay AID485344 (National Center for Advancing Translational Sciences (NCATS), 2010)
Further: 0% is about no effect.
